Data on 19 molecules can be found in the supplement of paper PMC12632987.

The full ranking holds about 1,800 sequences; the median of “median log2 fold change of GCK-ALFA target abundance (FLAG IP / Myc IP barcode read proportion)” is about 0.14, and the lowest 2% start at about -0.84. The list shows a part of the results.

Sequences and labels used below:
B1: traf2_out_13_95_1038 (protein)
chain: SKELAEKIMEIADEMEERSLALLEAAKEELADDPEAVAVLTEAKRLAETKGISEALHLLREASAANPEHAARFDALIEELEAIRREAGRKVAKLIKEEEE
B2: traf2_out_13_95_1035 (protein)
chain: SKELAEEIMKIADEALEKIEALLREAQARLADDPEAVAVLDEALRLARTRGVNEAIHLLREAAERLPEHREEFDALIEEIEKIREEAGRKVAKLIKEAEE
B3: traf2_out_11_169_810 (protein)
chain: EEAEKNRKINDFALELNDEAVEKLKKEALKLAKEAGLDVEEVEKIFEENKGKSLSAVAAALIKYFKEKGAEEAAEKVLKLYEELKEEINKKMTEKIKELE
B4: traf2_out_6_3_2515 (protein)
chain: SEEEERKRNEEALEEASEMSPETLKRAAETALKELERLVADPNATETDVEAAASFITTLLEILRKNAEKHPEKAEEYKKFAEEIEKRMEELLAEWKKKRA
B5: traf2_out_11_169_842 (protein)
chain: EEQAKNRAINDKALELNDEAKAKLKEHALALAKAAGLDVADINAIFEANKGKSFSAIAGALIAYFNSKGKADAAAAVEAKYEELKEEINKKATAFIKSLE
B6: traf2_out_15_48_1354 (protein)
chain: STEKLRATAREINDLFDATLAAVAAELRALLPELPPELRPLVEAAIHEAEVNTSINNVIALLDEAIARADPELAARLQALRDRLEATKKEASAMMNETLK
B7: traf2_out_8_15_2557 (protein)
chain: SLREAARKDLEKLKAASDGDEETFVNFVIGYARGLLRLAEIYLEEGNKEAALNTLDYTEALLEEALKYAKERKSKYLPKLEEEAKKIRERAEEIRKRIEA
B8: traf2_out_1_158_905 (protein)
chain: STDVNTLYAVATSILDVYAEEAKERGLEKAAALLEEAKKAVEELYEKNKDASLEEMAEKFKELLKEFEEKSKSLPEEEREAVEIAFRQARSGIEQVVKLA
B9: traf2_out_13_95_1172 (protein)
chain: SEEKTKKEREIASEAFDKMEKIAEDFAAKVRALIDDPAADALMDEVVRRMNIFTLEHAADQLQAAFPEKAAEIAALRDEAAAKMKEIRKETTKKLNEIEE
B10: traf2_out_18_167_1823 (protein)
chain: SAETAARIEELTDRLVALSEIRRLALQARHAMATDPAAAPAALAALIAALRAVPEFRPYADELEAAPEADKAALLERIADAAQRAANEAYKEREKLIEEA
B11: traf2_out_17_178_1738 (protein)
chain: SKEELLKKISEYADKLLDTNKEAMDKLKEIAEKEGVLTPELRALLDETSKNANLYHFEEVADKVIELVSSKEEVTKLKKETTAKMKELNKKIQEAYDKLE
B12: traf2_out_17_162_1636 (protein)
chain: AAVEEALKRIEKELEELRKKTEEFKELLKEIDKLTKEELTDYLVEASEARRRARELIVEVESLKDKIDPELRKEIIEELEKIAEELQKIANAFYKKREEL
B13: traf2_out_3_89_2307 (protein)
chain: AAEREATLEEMRREMEAYIRGFEKSARYVAKQMLADGASLDTLRGVLEAARSALLEVLRERMRERGLSEEEIEELLEEAEKRLNEVVERVVAAAEAERAA
B14: traf2_out_13_95_1175 (protein)
chain: EEEKTKKEREIASEAADRLEAVARRYAAEVAALLGDPEAAALAAEVVKNANIYTLEHAAAQLEARFPEKAAEIRALRDRAVAEMRAIRRETTAELNKIEE
B15: traf2_out_18_3_1938 (protein)
chain: KEEELKKVSEEIDKIIDEVTKKAREELERAKKEYPEFKEEVEELEKLLEAGAGPFGILEELAELAKKAGDEETAKEIEKFLEEKKKKLQELVDKYEELRK
B16: traf2_out_20_3_2240 (protein)
chain: SELEKKLKEELAKLKALLEELAPLLPPEDAARLRALLDAAEAAYKTDLSDALVELSELRRALLELAERARAAGDEETAAKLEAAADEAGRAMQLVYELIE
B17: traf2_out_16_104_1421 (protein)
chain: EAERQAAFDEAIARLEAIAAEAQRIANELMKLYEKASPEKKTALSDLLVEASELRRRALLAAQQARQDREAGGDLEEVRRTLEELEAELAALKAQLEALK
B18: traf2_out_3_89_2311 (protein)
chain: SMAQEAKIKEAKERAERYIKGFEKSARFVAEQMVKEGMSLETIRGVLEAAKSALVEELRETLKEMGLPEEEIEKIVEEFTKKLDEIVEKVVKEAEERRKK
B19: traf2_out_20_3_2180 (protein)
chain: MELEKKLEEELEKAEKLLKEAAKLADEETAKRLEKLIKRLKASRELSYDDRLVELSEIRRELLRLAEEARKRGKEELAKVLEKAADALNRAMNLVYKIIE

The experiment has as its target T1, TRAF2, Q12933.
T1 chain: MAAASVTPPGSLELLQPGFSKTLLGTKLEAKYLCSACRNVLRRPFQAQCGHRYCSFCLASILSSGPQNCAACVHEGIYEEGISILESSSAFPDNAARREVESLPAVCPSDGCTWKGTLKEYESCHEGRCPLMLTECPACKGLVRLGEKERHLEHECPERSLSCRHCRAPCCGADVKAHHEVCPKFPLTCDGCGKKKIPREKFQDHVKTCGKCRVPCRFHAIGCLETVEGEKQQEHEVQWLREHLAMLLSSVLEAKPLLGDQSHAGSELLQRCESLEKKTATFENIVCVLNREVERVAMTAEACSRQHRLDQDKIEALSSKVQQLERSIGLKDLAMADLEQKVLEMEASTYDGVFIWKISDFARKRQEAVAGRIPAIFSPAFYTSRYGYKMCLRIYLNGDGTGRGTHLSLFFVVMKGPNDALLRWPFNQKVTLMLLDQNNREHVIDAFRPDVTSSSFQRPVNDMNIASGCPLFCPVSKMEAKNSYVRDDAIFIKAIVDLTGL
As to the kind of experiment: median log2 fold change of GCK-ALFA target abundance (FLAG IP / Myc IP barcode read proportion) (log2 ratio); each designed protein is fused to an ALFA-tag nanobody in HEK293 cells to bring the named protein to FLAG-tagged glucokinase (GCK); Myc marks an untargeted standard; higher = target protein stabilised (more abundant). To be noted: target protein: 3xFLAG-MCP-GCK-ALFA reporter; HEK293 landing pad (RPLP). A digest of the protocol: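 Binders fused to an ALFA nanobody were recombined as a library into HEK293 landing-pad cells, which were induced with 2 μg mL^−1 doxycycline and then transfected to express a FLAG-tagged target and a Myc-tagged standard. After 48 h, circular RNA barcodes recovered by anti-FLAG and anti-Myc immunoprecipitation of lysates were reverse transcribed, amplified and sequenced. Each binder's target abundance is the median log2 ratio of FLAG to Myc barcode read proportions, from barcodes present at ≥10^−7 in both replicates, binders carrying ≥3 barcodes per replicate, a 10^−6 pseudocount and pooled replicates.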
As to B1, the “median log2 fold change” value is -0.177. Regarding B2, the “median log2 fold change” value was -0.171. For the molecule B3, the “median log2 fold change” value was -0.000749. As for B4, the “median log2 fold change” value is -0.0174. B5: the “median log2 fold change” value turned out to be 0.282. Next, B6: 0.274.

In the case of B7, the “median log2 fold change” value was -0.529. On to B8, for which the “median log2 fold change” value was found to be 0.107. Turning to B9, the “median log2 fold change” value came to 0.0918.

On to B10, for which the “median log2 fold change” value worked out at 0.321.

As for B11, the “median log2 fold change” value was 0.108. B12: the “median log2 fold change” value was determined as 0.176. For B13, the “median log2 fold change” value was -0.204. For the molecule B14, the “median log2 fold change” value is 0.212. Turning to B15, the “median log2 fold change” value came to 0.173.

B16: the “median log2 fold change” value was found to be 0.104.

For the molecule B17, the “median log2 fold change” value turned out to be 0.266. On to B18, for which the “median log2 fold change” value was -0.281.

For the molecule B19, the “median log2 fold change” value turned out to be 0.263.
